Read counts are not given, so values of variants with three or more changes are uncertain.
B1: CPEB3 Ribozyme (parent)
chain: UAACAGGGGGCCACAGCAGAAGCGUUCACGUCGCAGCCCCUGUCAGAUUCUGGUGAAUCUGCGAAUUCUGCUGUAUAUCUC

Variants of: B1
Assay: self-cleavage, relative activity (ratio to wild type); higher = more cleavage; in vitro, sequencing
How it was run: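 Libraries of CPEB3 self-cleaving ribozyme mutants came from rounds of error-prone PCR and carried barcodes, which DNA sequencing matched to variants. In vitro transcription used T7 RNA polymerase at 37°C for 5 hours, with a further 15 min in DNase I before EDTA stopped the reaction; the ribozymes cleaved during both steps. The RNA was reverse transcribed with template switching and sequenced on Illumina. Relative activity is the cleaved/total read fraction of a variant divided by that of the unmutated ribozyme, averaged over three batches with at least 5 reads.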
With UAACAGGGGGCCGCAGCUGAGGCAUUCACGUCGCAGCCCCUGUCAGAUUCUGGUGAAUCUGCGAAUUCUGUUGUAUAUCUC [A13G A18U A21G G24A C71U] the self-cleavage was 0.3.
UAACAGGGGGCCGCAGCAGGAGCGUUCACGUCGCAGCCCCUGUCAGAUUCUGGUGAAUCUGCGAGUCCUGCUGUAUAUCAC [A13G A20G A65G U67C U80A] showed a self-cleavage of 0.38.
UAACAGGGGGCCGCAGCAGGAGCGUUCACGUCUCAGCCCCUGUCAGAUUCUGGUGAGUCUGCGAAUUCUGCUGUAUAUCUC [A13G A20G G33U A57G] showed a self-cleavage of 0.06.
In the case of UAACAGGGGGCCGCAGCGGAAGCGUUCACGUCGCAGCCCCCGUCAGGUUUUGGUGAAUCUGCGAAUUCUGCUGUAAAUCUC [A13G A18G U41C A47G C50U U76A], the self-cleavage is reported as 0.09.
With UAACAGGGGGCCGCAGCAGGAGCGUUCUCGUCGCAGCACCUGUCAGAUCCUGGUGAAUCUGCGGAUUCUGCUGUAUAUCUC [A13G A20G A28U C38A U49C A64G] the self-cleavage was 0.04.
In the case of UAACAGGGGGCCGCAGCAGGAGCGUUCACGUCGCAGCCCCUGUCAGAUUCUGGUGAAUCUGCGUAUUCUGCUGUAUAUCUC [A13G A20G A64U], the self-cleavage is reported as 0.27.
In the case of UAACAGGGGGCCGCAGCAGCAGCGUUCACGUCGCAGCCCCAGACAGAUUCUGGUGAAUCUGCGAGUUCUGCUGUAUAUCUC [A13G A20C U41A U43A A65G], the self-cleavage is reported as 0.04.
With UAACAGGGGGCCGCAGCUGAAGCGUUCACGUCGCGGCCCCUGCCAGAUUCUGGUGAAUCUGCGAAUUCUGCUGUAUAUCCC [A13G A18U A35G U43C U80C] the self-cleavage was 0.08.
With UAACAGGGGGCCGCAGCGGAAGCGUUCACGUCGCAGCCCCUGUCAGAUACUGGUGAAUCUGCGAAUUCUGCUGUAUAUCUC [A13G A18G U49A] the self-cleavage was 0.14.
Work on UAACAGGGGGCCGCAGCUGAAGCGUUCACGUCGCAGCCCCUGUCAGAUUCUGGUGAAUCUGCGAAUUCUGCUGUAUAUCCC [A13G A18U U80C] yielded a self-cleavage of 0.34.
UAACAGGGGGCCGCAGCAGGAGCGUUCACGCCGCAGCCCCUGUCAGAUUCUGGUGAAUCUGCGAAUUCUGCUGUAUAUCUC [A13G A20G U31C] gave a self-cleavage of 0.32.
Work on UAACAGGGGGCCGCAGCUGAAGCGUUCACGUCGCAGCCCCUGUCGGAUUCUGGUGAAUCUGCGUAUUCUGCUGUAUAUCUC [A13G A18U A45G A64U] yielded a self-cleavage of 0.04.
UAACAGGGGGCCGCAGCGGAAGCGUUCACGUCGCAGCCCCUGUCAGAUUCUGGUGAAUCUGCGAAUUCCGCUGUGUAUCUC [A13G A18G U69C A75G] showed a self-cleavage of 1.17.
UAACAGGGGGCCGCAGCAGGAGCGUUCACGCCGCAGCCCCUGUCAGAUUCCGGUGAGUCUGCGAAUUCUGCUGUAUAUCUC [A13G A20G U31C U51C A57G] showed a self-cleavage of 0.36.
In the case of UAACAGGGGGCCGCAGCUGAAGCGUUCACGUCGCAGCCCCUGUCAGAUUCUGGGGAAUCUGCGAAUUCUGCUGUAUAUCAC [A13G A18U U54G U80A], the self-cleavage is reported as 0.18.
With UAACAGGGGGCCGCAGCGGAAGCGUUCACGUCGCAGCCCCUGUCAGAUUCUGGUGAAUCAGCGAAUUCAGCGGUAUGUCUC [A13G A18G U60A U69A U72G A77G] the self-cleavage was 0.14.
In the case of UAACAGGGGGCCGCAGCAGGAGCGUUCACGUCGCAGCCCCUGUCAGAUUCUGGUGAAUCUGCAAAUUCUGCUGUAUAUCUC [A13G A20G G63A], the self-cleavage is reported as 0.43.
Work on UAACAGGGGGCCGCAGCGGAAGCGUUCACGUCGCAGCCCCUGUCAGAUUCUGGUGAAUCUGCGAAUUCUGCUGUAUAGCUC [A13G A18G U78G] yielded a self-cleavage of 0.25.
Variant UAACAGGGGGCCGCAGCAGGAGCGUUCACGUCGCAGCCCCUGUCAGAUUCUGGUGAAUCUGCGAGUUCUGCUGUAUAUCUC [A13G A20G A65G] has a self-cleavage of 0.37.
In the case of UAACAGGGGGCCGCAGCAGGAGCGCUCACGUCGCAGCCCCUGUCGGAUUCUGGAGAAUCUGCGAAUUCUGCUGUAUAUCUC [A13G A20G U25C A45G U54A], the self-cleavage is reported as 0.49.
For UAACAGGGGGCCGCAGCAGCGGCGCUCACGACGCAGCCCCUGUCAGAUUCUGGUGAAACUGCGAAUUCUGCUGUAUACCUC [A13G A20C A21G U25C U31A U58A U78C], the self-cleavage was 0.
In the case of UAACAGGGGGCCGCAGCAGGAGCGUUCACGUCGCAGCCCCUGUCAGAUUCUGGUGAAUCUGCGAAUUCUGCUGUAUGUCUC [A13G A20G A77G], the self-cleavage is reported as 0.64.
UAACAGGGGGCCGCAGCAGGAGCGUUCACGCCGCAGCCCCUGUCAGAUUCUGGUGAAUCUGCGGGUUCUGCCGUAUAUCUC [A13G A20G U31C A64G A65G U72C] showed a self-cleavage of 0.33.
UAACAGGGGGCCGCAGCUGAAGCGUUCUCGUCGCAGCCCCUGUCAGAUUCUGGUGAAUCUGCGAAUUCUGCUGUAUAACUC [A13G A18U A28U U78A] gave a self-cleavage of 0.23.
Work on UAACAGGGGGCCGCAGCAGGAGCGUUCACGCCGCAGCCCCUGUCAGAUUCUGGUGAAUCUGCGAAUUCUGCCGUAUAUCUC [A13G A20G U31C U72C] yielded a self-cleavage of 0.43.
Variant UAACAGGGGGCCGCAGCAGGAGCGCUCACGUCGCGGCCCCUGUCAGGUUCUGGUGAAUCUGCGAAUUCAGCUGUAUAUCUC [A13G A20G U25C A35G A47G U69A] has a self-cleavage of 0.
UAACAGGGGGCCGCAGCAGGAGCGUUCACGUCGCGGCCCCUGUCAGACUCUGGUGAGUCUGCGUAUUCUGCUGUAUAUCUC [A13G A20G A35G U48C A57G A64U] showed a self-cleavage of 0.06.
With UAACAGGGGGCCGCAGCAGGAGCGAUCACGUCGCAGCCCCUGUCAGAUUCUGGCGAAUCUGCGAAUUCCGCUGUAUAUCUC [A13G A20G U25A U54C U69C] the self-cleavage was 0.26.
Work on UAACAGGGGGCCGCAGCUGAAGCGUUCACGUCGCAGCCCCAGUCAGGUUCUGGUGAAUCCGCGGAUUCUGCUGUAUAUCUC [A13G A18U U41A A47G U60C A64G] yielded a self-cleavage of 0.28.
Variant UAACAGGGGGCCGCAGCUGAAGCGUUCACGUCGCAGCCCCUGUCAGAUUCUGGUGAGUCUGCGGAUUCUGCUGUAUAUCUC [A13G A18U A57G A64G] has a self-cleavage of 0.15.
For UAACAGGGGGCCGCAGCGGAAGCGUUCACGUCGCAGCCCCCGCCAGAUUCUGGUGAAUCUGCGAAUUCCGCUGUAUAUCUC [A13G A18G U41C U43C U69C], the self-cleavage was 0.27.
With UAACAGGGGGCCGCAGCGGAAGCGUCCACGUCGCAGCCCCUGUCAGAUUCUGGUGAAUCUGCGAAUUCUGCUGUAUAUCUC [A13G A18G U26C] the self-cleavage was 0.37.
For UAACAGGGGGCCGCAGCUGAAGCGUUCACGUCGCAGCCCCUGUCAGAUUCUGGUGAAUCUGCGGAUUCAGCCGUAUAUCUC [A13G A18U A64G U69A U72C], the self-cleavage was 0.2.
Work on UAACAGGGGGCCGCAGCUGAAGCGUUCACGUCGCAGCCCCUGUCAGAUUCUGGUGAAUCUGCGAAUUCUGCAGUAUAUCUC [A13G A18U U72A] yielded a self-cleavage of 0.18.

Reference: the RNAGym collection of RNA variant scans (doi:10.1093/nar/gkz1192)
